Assay results from article PMC4336329 (PLoS ONE, 2015).
Out of some 310,000 compounds screened, about 14,000 (4.5%) showed an effect of 50% or more. Effects have a minus sign here. Some of the results follow.

Biological target: human ether-à-go-go-related gene (hERG) potassium channel (human, UniProt Q12809)
Experiment: primary screen, population patch clamp on CHO cells stably expressing hERG
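Also: peak tail current of the secondary pulse compared with the same well before compound.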

Sequence of human ether-à-go-go-related gene (hERG) potassium channel (Q12809 whole entry, looked up): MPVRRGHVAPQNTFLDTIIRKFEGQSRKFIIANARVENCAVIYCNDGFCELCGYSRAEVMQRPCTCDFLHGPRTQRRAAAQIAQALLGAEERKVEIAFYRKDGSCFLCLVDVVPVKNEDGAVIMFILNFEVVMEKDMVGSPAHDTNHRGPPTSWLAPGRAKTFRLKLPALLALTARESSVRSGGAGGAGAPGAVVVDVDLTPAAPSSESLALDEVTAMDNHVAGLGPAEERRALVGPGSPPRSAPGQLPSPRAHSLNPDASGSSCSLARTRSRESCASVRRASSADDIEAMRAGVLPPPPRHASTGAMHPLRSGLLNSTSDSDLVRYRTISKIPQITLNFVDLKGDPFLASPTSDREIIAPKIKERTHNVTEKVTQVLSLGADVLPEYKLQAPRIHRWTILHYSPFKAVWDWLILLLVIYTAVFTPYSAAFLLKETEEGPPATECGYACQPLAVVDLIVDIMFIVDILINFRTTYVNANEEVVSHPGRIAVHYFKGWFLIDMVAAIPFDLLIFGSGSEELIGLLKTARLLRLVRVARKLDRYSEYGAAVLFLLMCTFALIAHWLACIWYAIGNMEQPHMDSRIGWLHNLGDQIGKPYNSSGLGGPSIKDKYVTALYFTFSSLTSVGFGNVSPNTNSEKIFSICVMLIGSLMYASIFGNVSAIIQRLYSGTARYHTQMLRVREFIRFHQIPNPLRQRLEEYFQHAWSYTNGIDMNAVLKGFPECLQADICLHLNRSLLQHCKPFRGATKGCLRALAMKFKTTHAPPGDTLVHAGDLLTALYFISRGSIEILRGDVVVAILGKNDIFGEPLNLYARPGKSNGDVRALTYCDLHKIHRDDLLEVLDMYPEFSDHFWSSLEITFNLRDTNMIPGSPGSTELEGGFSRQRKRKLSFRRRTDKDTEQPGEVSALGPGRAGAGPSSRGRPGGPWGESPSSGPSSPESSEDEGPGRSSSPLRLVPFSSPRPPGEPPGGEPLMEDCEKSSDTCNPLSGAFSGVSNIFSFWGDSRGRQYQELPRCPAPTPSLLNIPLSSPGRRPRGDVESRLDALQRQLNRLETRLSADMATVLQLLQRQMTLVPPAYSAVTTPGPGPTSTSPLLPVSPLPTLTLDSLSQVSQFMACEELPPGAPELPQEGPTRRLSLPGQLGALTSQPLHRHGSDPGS

SMILES	hERG current change (%, negative = inhibition) at 10uM [%]
OCC1(CCc2ccccc2)CCCN(CCCC(F)(F)F)C1 (stereo not drawn)	-51.7
CC1CC(C(F)(F)C(F)(F)F)n2nc(C(=O)O)cc2N1 (stereo not drawn)	-1.95
Cc1nc2ccccc2n1C(C)c1ccccc1 (stereo not drawn)	7.77
C=CCc1cccc2cc(C(=O)N3CCOCC3)c(=O)oc12	-1.37
OCC[C@@H]1C[C@H](O)[C@@H](O)[C@@]2(CCCCO2)O1	4.62
CCN(CC)S(=O)(=O)c1ccc2c(c1)N(CC(=O)N(CCc1ccncc1)C(C)C)C(=O)CO2	-53.3
Brc1ccc2c(c1)C(c1cccnc1)=NNC(c1cccs1)=N2	-43.6
O=C(/C=C/c1ccc(O)c(O)c1)c1ccccc1O	7.58
O=C(Cn1cnc2scc(-c3ccc(Cl)cc3)c2c1=O)N1CCOCC1	-8.35
CCOc1ccccc1NC(=O)NNS(=O)(=O)c1ccc([N+](=O)[O-])cc1	5.17
CCOC(=O)N1CCN(CC(O)COc2c(C)cccc2C)CC1.Cl (stereo not drawn)	-15.7
O=C(Nc1cccc(Cl)c1N1CCCC1)c1cc2ccccc2o1	11.9
CN1CCN(C2=NC(=O)/C(=C/c3cn[nH]c3-c3ccccc3)S2)CC1	12.7
COc1ccc(C2NC(=S)NC3=C2CCc2cc(OC)ccc23)cc1 (stereo not drawn)	19.9
NS(=O)(=O)c1ccc(CNC(=O)C(c2ccccc2)c2ccccc2)cc1	2.89
CN1/C(=C\C=C2/SC(=S)N(CC(=O)O)C2=O)C(C)(C)c2ccccc21	15.1
COc1cccc(-n2nc(C(=O)N3CCC4(CC3)OCCO4)c3ccccc3c2=O)c1	-7.14
COc1ccc(Cn2c(SCc3ccc(C)cc3)nc3cc(OC)c(OC)cc3c2=N)cc1Cl	14.6
COc1ccc(/C(C)=N/NC(=O)CNC(=O)c2ccco2)cc1	6.26

SMILES	hERG current change (%, negative = inhibition) at 10uM [%]
CCOc1ccc(N(C)S(=O)(=O)c2cc(-c3cc(C)no3)ccc2C)cc1	8.58
Cc1cc2occ(CC(=O)N(C)CC(=O)Nc3ccccc3Cl)c2cc1C	-3.06
CN1CCN(C(=O)c2ccccc2NC(=O)c2ccccc2Br)CC1	-7.98
C=C1CCN(C(C(=O)OC)C(C)C)S(=O)(=O)c2ccc(F)cc21 (stereo not drawn)	-0.85
Cc1ccnc(SCc2cc(=O)c(OC(=O)c3cccs3)co2)n1	-12.7
CC1CCN(S(=O)(=O)c2cccc(C(=O)NNC(=O)c3ccco3)c2)CC1	-1.07
CCc1ccccc1NC(=S)N(Cc1ccc(OC)cc1)CC1CCC(C(=O)O)CC1 (stereo not drawn)	15
COc1ccc(/C=N/NC(=O)c2nc(-c3ccccc3)n(-c3ccccc3)n2)cc1	14.7
O=C(NCc1cccc(C(F)(F)F)c1)C1CC(c2cccc(F)c2)=NO1 (stereo not drawn)	-10.5
CCOc1ccc(CN2CCN(C(=O)Cc3ccccc3)CC2)cc1.O=C(O)C(=O)O	-44.1
CCCCN(C(=O)c1cccc(S(=O)(=O)N(C)c2ccc(C)cc2)c1)c1c(N)n(CCCC)c(=O)[nH]c1=O	-2.97
CN1CCN(CP(=O)(N2CCOCC2)N2CCOCC2)CC1	1.13
CCN(CC)S(=O)(=O)c1nnc(NC(=O)c2ccco2)s1	15.5
COc1cc([N+](=O)[O-])ccc1N/C=C/C(=O)c1cccs1	4.7
COC(=O)C1CCN(Cc2ccc(C)cc2)CC1	-22.2
Cn1nnnc1SCC(=O)NC1CCCC1	12.6
CCCc1nc2ccccc2c(=O)n1-c1ccc(O)cc1	13.4
Cn1nc(C(F)(F)F)c(/C=N/OC(=O)c2ccccc2Cl)c1SCc1ccc(Cl)cc1	-3.5
CCN(CC)CCNC(=O)c1c(O)c2ccccc2n(Cc2ccccc2)c1=O.Cl	-63

SMILES	hERG current change (%, negative = inhibition) at 10uM [%]
O=C1C2C3C=CC(C3)C2C(=O)N1CCN1CCN(S(=O)(=O)/C=C/c2ccccc2)CC1 (stereo not drawn)	-27.9
CN(Cc1n[nH]c(=S)n1C)S(=O)(=O)c1ccccc1	14.5
COc1ccc(O)c(/C=N/NC(=O)CCC(=O)Nc2ccc(C)cc2)c1	12.3
CC(=O)Nc1nc(SCC(=O)NCc2ccc(F)cc2)[nH]c(=O)c1NC(=O)c1cccs1	13.7
Cc1ccccc1-c1nnc(-c2ccc(Cl)cc2)o1	7.36
Cc1ccc(-c2nn(-c3ccccc3)cc2CSC(=N)N)cc1.Cl	-10.2
COc1ccc(NS(=O)(=O)c2cccc3nsnc23)cc1OC	2.86
CN(CC(=O)OCC(=O)NCc1ccccc1)S(=O)(=O)c1ccc(F)cc1	-13.7
CN1CCN(C2=C(Cl)C(=O)N(CCc3ccccc3)C2=O)CC1	0.967
CC(C)CCOc1ccc(/C=N/N2C(=O)CSC2=S)cc1	-3.94
CC(=O)c1ccc(OCC(O)CN2CCc3ccccc3C2)cc1.Cl (stereo not drawn)	-41.9
CCCCN(C(=O)c1cccs1)C1CCS(=O)(=O)C1 (stereo not drawn)	-12.6
CCOC(=O)c1c(C)n(CCNC(C)=O)c2ccc(O)cc12	17.7
CC(=O)c1cc2c(cc1NC(=O)CSc1nc3ccccc3o1)OCO2	3.8
COc1cc2c(cc1OC)CN(C(=O)CCN1C(=O)C3CCCCC3C1=O)CC2 (stereo not drawn)	36.4
CC(=O)N(Cc1ccc2c(c1)OCO2)C1CC(=O)N(CCc2ccccc2)C1=O (stereo not drawn)	-10.9
CCOC(=O)C1CCN(C(=O)Cn2cccc2C(=O)c2ccccc2)CC1	2.64
C1CN(CC2CCN(c3nc4nonc4nc3N3CCSCC3)CC2)CCO1	-3.83
CCOc1ccccc1NC(=O)COC(=O)C1CC1	3.42
